{"source": "the supplement of paper PMC8728848", "binders": {"B1": {"name": "ACA (Amaranthus caudatus) (protein)", "chain": "MAGLPVIMCLKSNNNQKYLRYQSDNIQQYGLLQFSADKILDPLAQFEVEPSKTYDGLVHIKSRYTNKYLVRWSPNHYWITASANEPDENKSNWACTLFKPLYVEEGNMKKVRLLHVQLGHYTQNYTVGGSFVSYLFAESSQIDTGSKDVFHVIDWKSIFQFPKRYVTFKGNNGKYLGVITINQLPCLQFGYDNLNDPKVAHEMFVTSNGTICIKSTYMNKFWRLSTDDWILVDGNDPRETNEAAALFRSDVHDFNVISLLNMQKTWFIKRFTSGKPGFINCMNAATQNVDETAILEIIELGSNN"}}, "experiment_in_all_cases": "glycan array binding signal (z-score within array); higher = stronger binding", "conditions_in_all_cases": "glycan notation: IUPAC condensed, linker removed", "key": {"[1]": {"biological_target": "Fuc(a1-2)Gal", "how_it_was_run": "(§1)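 From the Consortium for Functional Glycomics database, 3228 arrays were curated, keeping only those whose protein sequence was available. Binding is given as a within-array Z-score averaged across arrays sharing a protein sequence and across linkers. Negative Z-scores can be read as non-binding.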"}, "[2]": {"biological_target": "Fuc(a1-2)Gal(b1-3)GalNAc", "how_it_was_run": "as §1"}, "[3]": {"biological_target": "Fuc(a1-2)Gal(b1-3)GalNAc(a1-3)[Fuc(a1-2)]Gal(b1-4)Glc", "how_it_was_run": "as §1"}, "[4]": {"biological_target": "Fuc(a1-2)Gal(b1-3)GalNAc(a1-3)[Fuc(a1-2)]Gal(b1-4)GlcNAc", "how_it_was_run": "as §1"}, "[5]": {"biological_target": "Fuc(a1-2)Gal(b1-3)GalNAc(b1-3)Gal", "how_it_was_run": "as §1"}, "[6]": {"biological_target": "Fuc(a1-2)Gal(b1-3)GalNAc(b1-3)Gal(a1-4)Gal(b1-4)Glc", "how_it_was_run": "as §1"}, "[7]": {"biological_target": "Fuc(a1-2)Gal(b1-3)GalNAc(b1-4)[Neu5Ac(a2-3)]Gal(b1-4)Glc", "how_it_was_run": "as §1"}, "[8]": {"biological_target": "Fuc(a1-2)Gal(b1-3)GlcNAc", "how_it_was_run": "as §1"}, "[9]": {"biological_target": "Fuc(a1-2)Gal(b1-3)GlcNAc(b1-2)Man(a1-3)[Fuc(a1-2)Gal(b1-3)GlcNAc(b1-2)Man(a1-6)]Man(b1-4)GlcNAc(b1-4)GlcNAc", "how_it_was_run": "as §1"}, "[10]": {"biological_target": "Fuc(a1-2)Gal(b1-3)GlcNAc(b1-2)Man(a1-3)[Fuc(a1-2)Gal(b1-3)GlcNAc(b1-2)Man(a1-6)]Man(b1-4)GlcNAc(b1-4)[Fuc(a1-6)]GlcNAc", "how_it_was_run": "as §1"}, "[11]": {"biological_target": "Fuc(a1-2)Gal(b1-3)GlcNAc(b1-3)Gal(b1-4)Glc", "how_it_was_run": "as §1"}, "[12]": {"biological_target": "Fuc(a1-2)Gal(b1-3)GlcNAc(b1-3)GalNAc", "how_it_was_run": "as §1"}, "[13]": {"biological_target": "Fuc(a1-2)Gal(b1-3)GlcNAc(b1-3)[Fuc(a1-2)Gal(b1-3)GlcNAc(b1-6)]GalNAc", "how_it_was_run": "as §1"}, "[14]": {"biological_target": "Fuc(a1-2)Gal(b1-3)GlcNAc(b1-3)[Gal(b1-4)GlcNAc(b1-6)]Gal(b1-4)Glc", "how_it_was_run": "as §1"}, "[15]": {"biological_target": "Fuc(a1-2)Gal(b1-3)GlcNAc(b1-3)[Neu5Ac(a2-6)Gal(b1-4)GlcNAc(b1-6)]Gal(b1-4)Glc", "how_it_was_run": "as §1"}, "[16]": {"biological_target": "Fuc(a1-2)Gal(b1-3)GlcNAc6S", "how_it_was_run": "as §1"}, "[17]": {"biological_target": "Fuc(a1-2)Gal(b1-3)[Fuc(a1-4)]GlcNAc", "how_it_was_run": "as §1"}, "[18]": {"biological_target": "Fuc(a1-2)Gal(b1-3)[Fuc(a1-4)]GlcNAc(b1-2)Man(a1-3)[Fuc(a1-2)Gal(b1-3)[Fuc(a1-4)]GlcNAc(b1-2)Man(a1-3)]Man(b1-4)GlcNAc(b1-4)GlcNAc", "how_it_was_run": "as §1"}, "[19]": {"biological_target": "Fuc(a1-2)Gal(b1-3)[Fuc(a1-4)]GlcNAc(b1-2)Man(a1-3)[Fuc(a1-2)Gal(b1-3)[Fuc(a1-4)]GlcNAc(b1-2)Man(a1-6)]Man(b1-4)GlcNAc(b1-4)[Fuc(a1-6)]GlcNAc(b1-4)[Fuc(a1-6)]GlcNAc", "how_it_was_run": "as §1"}, "[20]": {"biological_target": "Fuc(a1-2)Gal(b1-3)[Fuc(a1-4)]GlcNAc(b1-3)[Fuc(a1-3)[Gal(b1-4)]GlcNAc(b1-6)]Gal(b1-4)Glc", "how_it_was_run": "as §1"}, "[21]": {"biological_target": "Fuc(a1-2)Gal(b1-3)[Fuc(a1-4)]GlcNAc(b1-3)[Gal(b1-4)GlcNAc(b1-6)]Gal(b1-4)Glc", "how_it_was_run": "as §1"}, "[22]": {"biological_target": "Fuc(a1-2)Gal(b1-4)Glc", "how_it_was_run": "as §1"}, "[23]": {"biological_target": "Fuc(a1-2)Gal(b1-4)Glc6S", "how_it_was_run": "as §1"}, "[24]": {"biological_target": "Fuc(a1-2)Gal(b1-4)GlcNAc", "how_it_was_run": "as §1"}, "[25]": {"biological_target": "Fuc(a1-2)Gal(b1-4)GlcNAc(b1-2)Man", "how_it_was_run": "as §1"}, "[26]": {"biological_target": "Fuc(a1-2)Gal(b1-4)GlcNAc(b1-2)Man(a1-3)[Fuc(a1-2)Gal(b1-4)GlcNAc(b1-2)Man(a1-6)]Man(b1-4)GlcNAc(b1-4)GlcNAc", "how_it_was_run": "as §1"}, "[27]": {"biological_target": "Fuc(a1-2)Gal(b1-4)GlcNAc(b1-2)Man(a1-3)[Fuc(a1-2)Gal(b1-4)GlcNAc(b1-2)Man(a1-6)]Man(b1-4)GlcNAc(b1-4)[Fuc(a1-6)]GlcNAc", "how_it_was_run": "as §1"}, "[28]": {"biological_target": "Fuc(a1-2)Gal(b1-4)GlcNAc(b1-2)[Fuc(a1-2)Gal(b1-4)GlcNAc(b1-4)]Man(a1-3)[Fuc(a1-2)Gal(b1-4)GlcNAc(b1-2)Man(a1-6)]Man(b1-4)GlcNAc(b1-4)GlcNAc", "how_it_was_run": "as §1"}, "[29]": {"biological_target": "Fuc(a1-2)Gal(b1-4)GlcNAc(b1-3)Gal(b1-4)GlcNAc", "how_it_was_run": "as §1"}, "[30]": {"biological_target": "Fuc(a1-2)Gal(b1-4)GlcNAc(b1-3)Gal(b1-4)GlcNAc(b1-2)Man(a1-3)[Fuc(a1-2)Gal(b1-4)GlcNAc(b1-3)Gal(b1-4)GlcNAc(b1-2)Man(a1-6)]Man(b1-4)GlcNAc(b1-4)GlcNAc", "how_it_was_run": "as §1"}}, "note": "This is one part of the list.", "data": [{"binder": "B1", "values": [{"measurement": "glycan array binding signal (z-score)", "setting": "[1]", "result": 0.02}, {"measurement": "glycan array binding signal (z-score)", "setting": "[2]", "result": -0.388}, {"measurement": "glycan array binding signal (z-score)", "setting": "[3]", "result": -0.48}, {"measurement": "glycan array binding signal (z-score)", "setting": "[4]", "result": -0.623}, {"measurement": "glycan array binding signal (z-score)", "setting": "[5]", "result": -0.347}, {"measurement": "glycan array binding signal (z-score)", "setting": "[6]", "result": -0.228}, {"measurement": "glycan array binding signal (z-score)", "setting": "[7]", "result": -0.071}, {"measurement": "glycan array binding signal (z-score)", "setting": "[8]", "result": -0.378}, {"measurement": "glycan array binding signal (z-score)", "setting": "[9]", "result": 0.619}, {"measurement": "glycan array binding signal (z-score)", "setting": "[10]", "result": -0.082}, {"measurement": "glycan array binding signal (z-score)", "setting": "[11]", "result": -0.448}, {"measurement": "glycan array binding signal (z-score)", "setting": "[12]", "result": -0.325}, {"measurement": "glycan array binding signal (z-score)", "setting": "[13]", "result": 1.01}, {"measurement": "glycan array binding signal (z-score)", "setting": "[14]", "result": -0.167}, {"measurement": "glycan array binding signal (z-score)", "setting": "[15]", "result": -0.274}, {"measurement": "glycan array binding signal (z-score)", "setting": "[16]", "result": -0.038}, {"measurement": "glycan array binding signal (z-score)", "setting": "[17]", "result": -0.296}, {"measurement": "glycan array binding signal (z-score)", "setting": "[18]", "result": 0.186}, {"measurement": "glycan array binding signal (z-score)", "setting": "[19]", "result": 0.076}, {"measurement": "glycan array binding signal (z-score)", "setting": "[20]", "result": -0.363}, {"measurement": "glycan array binding signal (z-score)", "setting": "[21]", "result": -0.302}, {"measurement": "glycan array binding signal (z-score)", "setting": "[22]", "result": -0.08}, {"measurement": "glycan array binding signal (z-score)", "setting": "[23]", "result": 0.198}, {"measurement": "glycan array binding signal (z-score)", "setting": "[24]", "result": -0.106}, {"measurement": "glycan array binding signal (z-score)", "setting": "[25]", "result": 0.126}, {"measurement": "glycan array binding signal (z-score)", "setting": "[26]", "result": 0.993}, {"measurement": "glycan array binding signal (z-score)", "setting": "[27]", "result": -0.813}, {"measurement": "glycan array binding signal (z-score)", "setting": "[28]", "result": 0.579}, {"measurement": "glycan array binding signal (z-score)", "setting": "[29]", "result": -0.247}, {"measurement": "glycan array binding signal (z-score)", "setting": "[30]", "result": 0.297}]}]}
